Source: article PMC12136788
This is one part of the list.

B1: 116059970_116060090_329_5pUTR_ENSMUSG00000020777_ENSMUST00000066587|mouse|control|control (ssRNA)
RNA: GGGAGUUCUACAGUCCGACGAUCUGGAUUGAAGGUGGCGGCGGCCCGCUCCUUGCGCAGAUCGGGAUUCAUGACGGAGACCAGUGCUGGGGGCAGAGGAGGUGGCGACAGAAGUGACAGGCACCAAAGCGAUGACAACCUGUCCAACAGAGGAUUGAGCAUCA
B2: chr14:76904430:76904431:+_ENSMUSG00000022010_ENSMUST00000022587|mus_mus|mus_mus_mus_hu_True|18_58 (ssRNA)
RNA: GGGAGUUCUACAGUCCGACGAUCUGCAGCCAAAAACACCCUCGUGGAAAAAAAGAGGGAACACCAGCAGCCUUGUACAAACUAGAUAAAAUCUUCUGGCUUUCCGCAGCCCAGGGAGUGAGAACGGACGGCAGCCCUAAUUUACAACAGAGGAUUGAGCAUCA
B3: 55603627_55603862_1926_CDS_ENSG00000125503_ENST00000592993|human|control|control (ssRNA)
RNA: GGGAGUUCUACAGUCCGACGAUCGCCGCAGCGUGGUCUCGGUCAGGGCCUCGCGAAGCCGCUCGUUCUCCCUGCGCAGCUCUGCAUACAGCGUCCUAAAGCCUCCGUCUGGCUCUUCCGAUUCUGGCUCAGGUUCUGGGUUGACAACAGAGGAUUGAGCAUCA
B4: chrX:12728449:12728450:+_ENSMUSG00000031010_ENSMUST00000089302|perfect_dup|FALSE|FALSE (ssRNA)
RNA: GGGAGUUCUACAGUCCGACGAUCAUGUCCUAAAGCUUUUAAAGCUUCAUCUAAACUAUCCACCAAUGAAUUAAAAAAUUCUAAAGCAUCGUGUUGUUCACGCAGAUUAACAGGCUCACCCCAAAGCCUGAACUGUUUCCAAAACAACAGAGGAUUGAGCAUCA
B5: chr2:202488911:202488912:-_ENSG00000155755_ENST00000286196|hu_mus|hu_hu_hu_mus_False|8_88 (ssRNA)
RNA: GGGAGUUCUACAGUCCGACGAUCAUUGAAACAUUUUUCAUAAUCUCAGAGAUGUUUUCAGCAUUAUGUAACAAAAGCUCAAUUGUAAAUACAUGUAUCUUAUAAAAAUACACUUAAAAACACGAGUAAAAAUGGGAGGCGCCACAACAGAGGAUUGAGCAUCA
B6: 167813544_167813664_159_5pUTR_ENSG00000173905_ENST00000470487|human|control|control (ssRNA)
RNA: GGGAGUUCUACAGUCCGACGAUCGACUCCGGGCCGCGCCCCCGUGCGGCCUGCCCAAUGGGUGGAAGGGUGGGGGCCAGCUGUCUCGGCUGGUUUUGGGGACGGCACAGCGGUGUCACUGACGGGUCGGCUGGUGCCUCUGCCCAACAGAGGAUUGAGCAUCA
B7: 120591706_120593086_3661_CDS_ENSG00000089154_ENST00000300648|human|control|control (ssRNA)
RNA: GGGAGUUCUACAGUCCGACGAUCGCCACACCUGGCUUCCCACUGAUCUGGAGGAGAUUCUGAAAUAACUCGUCCCAAAGCAUCCAGCACUGGGGGCGGCCGGUAGAGCUUUUCCUGGUAAAUCUCCAUGAGCCUGCCCAUAACCAACAGAGGAUUGAGCAUCA
B8: 92955481_92955601_2545_3pUTR_ENSG00000113391_ENST00000395965|human|control|control (ssRNA)
RNA: GGGAGUUCUACAGUCCGACGAUCUUGUUCAAACUGUAGGGCUAAACCCUACAGAGGAAGCGGAGUGCUAAAAAUUAUACCAUUGGACUGAGAGAAGAAAUUCUUUCACACCAAGUCCUUCUCUUCUUGUUAAAGCAGAAAACUCAACAGAGGAUUGAGCAUCA
B9: chr16:84831616:84831617:-_ENSMUSG00000022890_ENSMUST00000023608|mus_mus|FALSE|FALSE (ssRNA)
RNA: GGGAGUUCUACAGUCCGACGAUCUCCUCCAGAUGCCUGUCGCUUUGAUUUGUACUCUCUUAUCUUGUCCACGAAGAGUUUCUGUACAGGAUCAAGUUCCUUAUUAAAGGCCACAGCUGUAACACCAAUGUUCCUCUUCAAAUGCAACAGAGGAUUGAGCAUCA
B10: chr4:57314706:57314707:+_ENSG00000128050_ENST00000264221|hu_mus|hu_hu_hu_mus_True|78_98 (ssRNA)
RNA: GGGAGUUCUACAGUCCGACGAUCCAGAAUUUCAAAAAUAGCCUGUGUGGCAUGACUCAUGAUAUCCACUUCAGUCUGCCCUAUAACAAGGCCAGCAAAACAGAAUUUUGCAGCAAUGAGUUGCUCCUCAGACCACUGUGGAUCCAACAGAGGAUUGAGCAUCA
B11: 20174337_20175353_674_CDS_ENSG00000118965_ENST00000281405|human|control|control (ssRNA)
RNA: GGGAGUUCUACAGUCCGACGAUCUCCAGCAAUGCUGAUAGCUCCAGUGACAUUCACCAAACAACUCAGUUUCAUUUUUAUCAUAAAAUUUCCUUGAUUAUCGUAAAUGUGUAUUUCCCCAUUUGCCAUUCCAAAAAGUAAGACCAACAGAGGAUUGAGCAUCA
B12: chr6:82862619:82862620:-_ENSMUSG00000000627_ENSMUST00000000641|mus_hu|FALSE|FALSE (ssRNA)
RNA: GGGAGUUCUACAGUCCGACGAUCUAUCUUUAUACUGCUCGUAUAUCCUAUGACUGUUCCCCUUCUGUUGUUCCCUAAUCAUUAGAAUGUUGUUGAUUUUUAAUGGGAGCCAAGGAAAUGGGGUACAGCCUACACUCCAGCCAGCAACAGAGGAUUGAGCAUCA
B13: chr10:22606824:22606825:+_ENSG00000148444_ENST00000456711|hu_mus|FALSE|FALSE (ssRNA)
RNA: GGGAGUUCUACAGUCCGACGAUCGCAAGUUGCAGCUGCUGCAUGACAAUGCUUUAAAACCACUGGGUCGAUCUGUUUCAAGUAUGGGUGAUCUAGCGCGGCCUCGUCCGCCCGGGCGUCCAGCAGGCUCUGGAAAGCCGCCCGCAACAGAGGAUUGAGCAUCA
B14: chr8:98253062:98253063:-_ENSMUSG00000036550_ENSMUST00000098473|mus_mus|motif|central (ssRNA)
RNA: GGGAGUUCUACAGUCCGACGAUCGGUUUCCAACACAUGCUCGGGUGCAUUGAGCUCCAACAGCAGCAUGAUAAAAAUCCGGUGGUACGGAAGUUGCUGAAAUUCACUCUGCCGAACAUCAUGAUCCUGUAGGAGAACUCCCACCAACAGAGGAUUGAGCAUCA

target: T1, UNK ZnF1-3 (human, UniProt Q9C0B0 31-174); experiment: nsRBNS (natural sequence RNA bind-n-seq); RBNS binding buffer (assumed for nsRBNS): 25 mM Tris pH 7.5, 150 mM KCl, 3 mM MgCl2, 0.01% Triton X-100, 500 ug/ml BSA, 20 U/ml SUPERase-In, 4 C; UNK is unkempt and MSI1 is Musashi-1; names of the RNAs are library labels; protein concentration not given here; high values mean tight binding
T1 sequence: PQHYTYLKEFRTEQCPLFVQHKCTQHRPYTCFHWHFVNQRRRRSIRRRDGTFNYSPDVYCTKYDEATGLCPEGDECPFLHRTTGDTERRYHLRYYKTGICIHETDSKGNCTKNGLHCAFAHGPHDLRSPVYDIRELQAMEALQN

| Binder | binding signal |
| --- | --- |
| B1 | 1.28 enrichment R |
| B2 | 1.78 enrichment R |
| B3 | 0.589 enrichment R |
| B4 | 1.31 enrichment R |
| B5 | 0.687 enrichment R |
| B6 | 0.792 enrichment R |
| B7 | 1.38 enrichment R |
| B8 | 0.672 enrichment R |
| B9 | 0.855 enrichment R |
| B10 | 0.937 enrichment R |
| B11 | 1.53 enrichment R |
| B12 | 0.526 enrichment R |
| B13 | 0.942 enrichment R |
| B14 | 1.14 enrichment R |
